A collection of fitness landscapes (doi:10.1126/science.1257360)
Some of the results follow.

B1: PhoQ; a variant is named by its letters at X, in order, P23837 (parent)
chain: MKKLLRLFFPLSLRVRFLLATAAVVLVLSLAYGMVALIGYSVSFDKTTFRLLRGESNLFYTLAKWENNKLHVELPENIDKQSPTMTLIYDENGQLLWAQRDVPWLMKMIQPDWLKSNGFHEIEADVNDTSLLLSGDHSIQQQLQEVREDDDDAEMTHSVAVNVYPATSRMPKLTIVVVDTIPVELKSSYMVWSWFIYVLSANLLLVIPLLWVAAWWSLRPIEALAKEVRELEEHNRELLNPATTRELTSLVRNLNRLLKSERERYDKYRTTLTDLTHSLKTPLXXLQXXLRSLRSEKMSVSDAEPVMLEQISRISQQIGYYLHRASMRGGTLLSRELHPVAPLLDNLTSALNKVYQRKGVNISLDISPEISFVGEQNDFVEVMGNVLDNACKYCLEFVEISARQTDEHLYIVVEDDGPGIPLSKREVIFDRGQRVDTLRPGQGVGLAVAREITEQYEGKIVAGESMLGGARMEVIFGRQHSAPKDE

Variants of: B1
Assay: enrichment ratio after two sorts for PhoP signalling (ratio (wild type AVST 3.29)); higher = more functional
Settings: with PhoP (E. coli)

Variant | enrichment ratio
IFHW | ≤ 0.25
TNRM | ≤ 0.25
YHMS | ≤ 0.25
PCES | ≤ 0.25
TQRC | ≤ 0.25
SWPS | ≤ 0.25
RPWF | ≤ 0.25
RRNQ | ≤ 0.25
WQVD | ≤ 0.25
GDEC | ≤ 0.25
KMNM | ≤ 0.25
FKIV | ≤ 0.25
PLCA | ≤ 0.25
KKML | ≤ 0.25
ENNM | ≤ 0.25
WPKV | ≤ 0.25
SKLR | ≤ 0.25
QIMN | ≤ 0.25
KLDM | ≤ 0.25
RWRD | ≤ 0.25
KPAW | ≤ 0.25
HLYD | ≤ 0.25
NSDH | ≤ 0.25
MPEK | ≤ 0.25

Variant | enrichment ratio
LDHW | ≤ 0.25
CAPL | ≤ 0.25
DYRL | ≤ 0.25
RPRP | ≤ 0.25
YIWY | ≤ 0.25
WPES | ≤ 0.25
HLQR | ≤ 0.25
NGMC | ≤ 0.25
PPLF | ≤ 0.25
GYSR | ≤ 0.25
DLAG | ≤ 0.25
DLYR | ≤ 0.25
MHMA | ≤ 0.25
RWTF | ≤ 0.25
KTYM | ≤ 0.25
HYLN | ≤ 0.25
VIIG | ≤ 0.25
QEFA | 0.476
AGNG | ≤ 0.25
SKMT | 10.8
ETCS | ≤ 0.25
MTAN | 6.61
WDGI | ≤ 0.25
ILYG | ≤ 0.25

Variant | enrichment ratio
KGSG | ≤ 0.25
KYGP | ≤ 0.25
IYRM | ≤ 0.25
WFIL | ≤ 0.25
KDPY | ≤ 0.25
VHHN | ≤ 0.25
RNFA | ≤ 0.25
LFCK | ≤ 0.25
HWWY | ≤ 0.25
GKND | ≤ 0.25
EVPA | ≤ 0.25
HMMC | ≤ 0.25
DEKP | ≤ 0.25
TQIH | 2.12
LEND | ≤ 0.25
TASE | 11.3
YKWV | ≤ 0.25
HALK | ≤ 0.25
QYGQ | ≤ 0.25
MINH | ≤ 0.25
RTLK | ≤ 0.25
LRTE | ≤ 0.25
MTYD | ≤ 0.25
ADFF | ≤ 0.25

Variant | enrichment ratio
RHIF | ≤ 0.25
YIPH | ≤ 0.25
SQSQ | 8.8
DRNP | ≤ 0.25
KQNR | ≤ 0.25
SSDH | ≤ 0.25
NNST | ≤ 0.25
PVEP | ≤ 0.25
PLAI | ≤ 0.25
GGHN | ≤ 0.25
PNKS | ≤ 0.25
KPRM | ≤ 0.25
NLCQ | ≤ 0.25
VTIL | ≤ 0.25
FKVN | ≤ 0.25
RYNE | ≤ 0.25
HEHF | ≤ 0.25
GFGN | ≤ 0.25
DADK | ≤ 0.25
NKYH | ≤ 0.25
GLDQ | ≤ 0.25
DSVD | ≤ 0.25
MYGK | ≤ 0.25
RGPT | ≤ 0.25

Variant | enrichment ratio
IVAP | ≤ 0.25
LRKS | ≤ 0.25
FCDP | ≤ 0.25
SKGD | ≤ 0.25
VLLD | ≤ 0.25
MILS | 7.3
NNSI | ≤ 0.25
DVHP | ≤ 0.25
SQYP | ≤ 0.25
PRGP | ≤ 0.25
NICC | ≤ 0.25
EIML | ≤ 0.25
TRPL | ≤ 0.25
TGII | ≤ 0.25
FHTF | ≤ 0.25
NFLQ | ≤ 0.25
WGVY | ≤ 0.25
RASE | ≤ 0.25
GGWG | ≤ 0.25
QCNM | ≤ 0.25
TVQS | 7.79
WNDP | ≤ 0.25
IENN | ≤ 0.25
YICP | ≤ 0.25

Variant | enrichment ratio
AFRT | ≤ 0.25
VTKY | ≤ 0.25
ECMF | ≤ 0.25
FSGR | ≤ 0.25
WINP | ≤ 0.25
KYKH | ≤ 0.25
YVVN | ≤ 0.25
VADM | ≤ 0.25
PLQW | ≤ 0.25
NFWQ | ≤ 0.25
MEQK | ≤ 0.25
ADKL | ≤ 0.25
YQVS | ≤ 0.25
KDNG | ≤ 0.25
DKGM | ≤ 0.25
EYMR | ≤ 0.25
EIVW | ≤ 0.25
HGTY | ≤ 0.25
NGWH | ≤ 0.25
ITLV | 7.88
LGHY | ≤ 0.25
TDIT | ≤ 0.25
MYQW | ≤ 0.25
QLCI | ≤ 0.25

Variant | enrichment ratio
QLKW | ≤ 0.25
WSKD | ≤ 0.25
MCDC | ≤ 0.25
DPMR | ≤ 0.25
QRKV | ≤ 0.25
FWQV | ≤ 0.25
YYAN | ≤ 0.25
QKIY | ≤ 0.25
NMLY | ≤ 0.25
SWEQ | ≤ 0.25
HIDY | ≤ 0.25
QGVS | ≤ 0.25
ARFK | ≤ 0.25
DWFG | ≤ 0.25
GLCN | 12.8
WQPM | ≤ 0.25
LEVR | ≤ 0.25
KGTT | ≤ 0.25
IHQA | ≤ 0.25
PTAG | ≤ 0.25
RNKM | ≤ 0.25
DMVK | ≤ 0.25
DGSE | ≤ 0.25
KFDA | ≤ 0.25

Variant | enrichment ratio
FARF | 0.405
VDIP | ≤ 0.25
IRKA | ≤ 0.25
SLFY | ≤ 0.25
MRMV | ≤ 0.25
ISIW | ≤ 0.25
AIAV | 9.01
SQMC | 10.5
PSNK | ≤ 0.25
NTFG | ≤ 0.25
ADCL | ≤ 0.25
WWSD | ≤ 0.25
SFWD | ≤ 0.25
KNTL | ≤ 0.25
TFFK | ≤ 0.25
HTWF | ≤ 0.25
EQIY | ≤ 0.25
NSMG | ≤ 0.25
EGCF | ≤ 0.25
GNHP | ≤ 0.25
TEVF | 2.32
ALAE | ≤ 0.25
QIIM | ≤ 0.25
HMFC | ≤ 0.25

Variant | enrichment ratio
VIRD | ≤ 0.25
QTPY | ≤ 0.25
QHHV | ≤ 0.25
CCAF | 6.47
QEIL | ≤ 0.25
HRWA | ≤ 0.25
RVQG | ≤ 0.25
LPFG | ≤ 0.25
ETII | ≤ 0.25
QVRG | ≤ 0.25
EFSL | ≤ 0.25
YPPC | ≤ 0.25
YNHT | ≤ 0.25
SGQH | 11.9
HTMY | ≤ 0.25
MSLC | 11.7
NHET | ≤ 0.25
WIWE | ≤ 0.25
IHPL | ≤ 0.25
VTCM | 2.29
AKVF | 1.45
GPGT | ≤ 0.25
SIDY | ≤ 0.25
YRTC | ≤ 0.25

Variant | enrichment ratio
KVWY | ≤ 0.25
LWEC | ≤ 0.25
LKQS | ≤ 0.25
QPEL | ≤ 0.25
LLSR | ≤ 0.25
HICG | ≤ 0.25
NILD | ≤ 0.25
RCHH | ≤ 0.25
QDAV | ≤ 0.25
YMGS | ≤ 0.25
HRHV | ≤ 0.25
ENLQ | ≤ 0.25
PKRF | ≤ 0.25
AYNA | ≤ 0.25
ADST | ≤ 0.25
FEYG | ≤ 0.25
RDYQ | ≤ 0.25
LVDW | ≤ 0.25
KFGY | ≤ 0.25
LSGW | ≤ 0.25
YQAS | ≤ 0.25
FQAL | ≤ 0.25
HWDI | ≤ 0.25
TCGV | 6.19

Variant | enrichment ratio
ILGC | ≤ 0.25
GRET | ≤ 0.25
IRTR | ≤ 0.25
TRQG | ≤ 0.25
SWIP | ≤ 0.25
FDWY | ≤ 0.25
NPYG | ≤ 0.25
QPGD | ≤ 0.25
HRQV | ≤ 0.25
LNMK | ≤ 0.25
GYPS | ≤ 0.25
YFLK | ≤ 0.25
DQYE | ≤ 0.25
TDYT | ≤ 0.25
PYQK | ≤ 0.25
EGVL | ≤ 0.25
GTAI | ≤ 0.25
PPMR | ≤ 0.25
RYME | ≤ 0.25
IQKQ | ≤ 0.25
YRDG | ≤ 0.25
DSIY | ≤ 0.25
EAML | ≤ 0.25
TLCK | ≤ 0.25

Variant | enrichment ratio
PFCG | ≤ 0.25
KMPH | ≤ 0.25
WNYY | ≤ 0.25
NRRP | ≤ 0.25
WGFW | ≤ 0.25
MWIF | ≤ 0.25
FIYV | ≤ 0.25
IDFY | ≤ 0.25
KHPM | ≤ 0.25
MHHR | ≤ 0.25
AQMR | ≤ 0.25
QDMT | ≤ 0.25
DHQC | ≤ 0.25
ISTM | ≤ 0.25
SVNA | ≤ 0.25
IWAN | ≤ 0.25
TERT | ≤ 0.25
IGWD | ≤ 0.25
QACF | ≤ 0.25
NQVH | ≤ 0.25
TYYP | ≤ 0.25
DPNF | ≤ 0.25
NSEG | ≤ 0.25
GCYR | ≤ 0.25

Variant | enrichment ratio
MSMS | ≤ 0.25
PQHI | ≤ 0.25
FLGM | ≤ 0.25
GGCH | 5.28
FEMV | ≤ 0.25
DFYD | ≤ 0.25
RNQR | ≤ 0.25
HAWK | ≤ 0.25
NDGD | ≤ 0.25
YHFT | ≤ 0.25
KTHQ | ≤ 0.25
PDNG | ≤ 0.25
LWPR | 1.03
WYNR | ≤ 0.25
TSCS | 14.7
VSTW | ≤ 0.25
GNIT | ≤ 0.25
HNCC | ≤ 0.25
